In PubChem BioAssay AID686978 (National Center for Advancing Translational Sciences (NCATS), 2013):
The campaign covered roughly 420,000 compounds. About 64,000 (15%) were called active. The shares of active, inactive and inconclusive entries below differ from those in the screen. Calls follow the shape of the dose curve; as a rule, active = well fitted inhibition curve with a large enough effect; inconclusive = small, poorly fitted or top-dose-only effect; inactive = flat fitted curve, though single readings scatter. Potencies of inconclusive entries are left out as doubtful fits.

Test: qHTS for Inhibitors of human tyrosyl-DNA phosphodiesterase 1 (TDP1): qHTS in cells in absence of CPT; also: nearly all actives have a fitted effect of over 55% in size
Conditions: DT40 Tdp1-/- hTDP1 cells, no CPT, ATP luminescence, 48 h; activity change, negative = growth inhibition: at 46.2 µM (top of the series)
In short: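 Chicken DT40 Tdp1-/- cells stably complemented with human TDP1 were seeded at 400 cells/well with DMSO in place of 20 nM camptothecin. After compound pinning, cells grew at least 48 hr at 37 °C; viability read by CellTiter-Glo luminescence.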
% is scaled to controls: 0 for no effect and ±100 for the full control effect; potency is read from the fitted curve at half-maximal effect; tags tell the direction and shape of the fitted curve.

Compound | Potency | activity change, negative = growth inhibition
CC1CCCCC1NC(=O)c1ccc(S(=O)(=O)NNC(=O)c2ccncc2)cc1 (centres undefined) | inconclusive [inhibitor, single point] | –
COc1ccc(Cl)cc1NC(=O)CN(C)C(=O)c1cn(-c2ccccc2)nc1-c1cccnc1 | inconclusive [inhibitor, single point] | –
O=C1NC[C@@H](Cc2cccc3ccccc23)N(CCc2cc(C(F)(F)F)cc(C(F)(F)F)c2)C1=O | inconclusive [inhibitor, single point] | –
C[C@@H]1CCCN1[C@H]1CS(=O)(=O)N[C@@H]1COCc1ccccc1 | – | inactive: -4.47%
N#Cc1cc(-c2ccccc2)nc(NN)n1 | inconclusive [inhibitor, partial curve] | –
Cc1ccc(-c2nn(-c3ccccc3)cc2C(=O)Nc2cccc(S(=O)(=O)N3CCOCC3)c2)cc1 | inconclusive [inhibitor, partial curve] | –
CCOc1ccc(NC(=O)N2CCN(C(=O)c3nsc4ccccc34)CC2)cc1 | inconclusive [inhibitor, single point] | –
O=S(=O)(CC(O)(c1ccccc1)c1ccccc1)CC(O)(c1ccccc1)c1ccccc1 | inconclusive [inhibitor, single point] | –
COc1cc(OC)c2c(C)c(CC(=O)NCc3ccccc3OC)c(=O)oc2c1 | inconclusive [inhibitor, partial curve] | –
COc1ccccc1C1(CC(=O)N2CCCCC2)CCOC(C(C)C)C1 (centres undefined) | active: 23.1 µM | –
CCOc1ccc(NC(=O)CSc2nc3cc(C(=O)NCC4CCCO4)ccc3c(=O)n2CC2CCCO2)cc1 (centres undefined) | inconclusive [inhibitor, single point] | –
Cc1cccc(C)c1NC(=O)CN1CCN(C/C=C/c2ccccc2)CC1 | inconclusive [inhibitor, single point] | –
CCOC(=O)c1c(NC(=O)COC)sc(C)c1C | inconclusive [inhibitor, single point] | –
Cc1ccc(-c2nn(-c3ccccc3)cc2CSC(=N)N)cc1 | inconclusive [inhibitor, single point] | –
Cc1occc1-c1nnc(SCC(=O)NC2CCC(C)CC2)o1 (centres undefined) | – | inconclusive: -30.7% [inhibitor]
N#CC1=C(N)N2C(=C(C#N)C1c1ccc(Br)cc1)Nc1ccccc12 (centres undefined) | active: 3.26 µM | –
CC1CC(C)CN(CCCNS(=O)(=O)c2ccc3c(c2)oc(=O)n3C)C1 (centres undefined) | – | inactive: 17.3%
COc1ccc(-c2cc(C(F)(F)F)nc(SCC(=O)N(C)Cc3ccccc3)n2)cc1 | inconclusive [inhibitor, single point] | –
CC1(C(=O)NCc2ccccc2)Cc2c(-c3ccc4c(c3)OCO4)ccnc2O1 (centres undefined) | active: 0.82 µM | –
Cc1cccc(CN2[C@H](COC(=O)Nc3ccccc3)C=CS2(=O)=O)c1 | inconclusive [inhibitor, single point] | –
O=C(NCc1nnc(SCC(=O)N2CCCC2)o1)c1c(F)cccc1Cl | – | inconclusive: -27.8% [inhibitor]
O=S(=O)(Nc1cccc(-c2ccc(N3CCOCC3)nn2)c1)c1ccc(F)c(C(F)(F)F)c1 | inconclusive [inhibitor, single point] | –

Compound | Potency | activity change, negative = growth inhibition
OC(CN1CCN(c2ccccc2Cl)CC1)c1ccccc1 (centres undefined) | – | inactive: -15.1%
C=CCN=C(NC#N)SCc1ccccc1Cl | – | inactive: -21.5%
Cc1cc(OCC(=O)NC2CC(C)(C)NC(C)(C)C2)c(C)cc1Br | active: 13 µM | –
COc1ccc(Cl)cc1NC(=O)NC(C)C(C)(C)C (centres undefined) | inconclusive [inhibitor, single point] | –
COc1ccc(-c2nn(C)c(=O)c3ccccc23)cc1NC(=O)Cn1nc(C)c2ccccc2c1=O | inconclusive [inhibitor, single point] | –
Cc1ccc(C2=CC(=O)C[C@H](c3ccc(Cl)cc3)C2)cc1 | inconclusive [inhibitor, single point] | –
COc1ccc(Nc2cc(C(=O)NCc3ccco3)c3ccccc3n2)c(OC)c1 | active: 23.1 µM | –
O=C(NCCc1csc(-c2ccccc2)n1)c1ccco1 | inconclusive [inhibitor, single point] | –
O=C(COc1ccccc1Cl)Nc1ccc2nc(SCC(=O)N3CCOCC3)sc2c1 | active: 4.11 µM | –
COc1ccc(CNc2ncnc3ccc(-c4ccc(C(=O)N(C)C)cc4)cc23)c(OC)c1 | inconclusive [inhibitor, single point] | –
CN1C(=O)/C(=C/c2ccccc2F)Sc2ccc(C(=O)NCC3CCCO3)cc21 (centres undefined) | inconclusive [inhibitor, single point] | –
Cc1ccc(NC(=O)CSc2nccn2-c2ccccc2)cc1 | inconclusive [inhibitor, single point] | –
COc1ccccc1C(NC(=O)C1CCN(CCOc2ccccc2)CC1)c1ccccn1 (centres undefined) | inconclusive [inhibitor, single point] | –
COc1ccc(/C=C/C(=O)Nc2ccc3nc4n(c(=O)c3c2)CCCC4)cc1 | – | inactive: -22.2%
CCc1nnc(NC(=O)c2ccc(S(C)(=O)=O)cc2)s1 | inconclusive [inhibitor, single point] | –
C=C(C)Cn1c(SCC(=O)O)nnc1-c1ccc(OC)cc1 | – | inactive: -2.91%
O=C(Nc1ccccc1)c1ccc(NCC2CCCO2)c(S(=O)(=O)N2CCOCC2)c1 (centres undefined) | inconclusive [inhibitor, partial curve] | –
CCc1sc(-c2cc3ccccc3oc2=O)nc1-c1ccc(C)cc1 | – | inactive: -19.1%
Cc1c(C(C)C)c(=O)n(-c2ccc(S(=O)(=O)NC3CCCCC3)cc2)n1C | active: 5.17 µM | –
CC(C)(C)c1ccccc1OCCCCN1CCCC1 | inconclusive [inhibitor, single point] | –
Cc1cc(C(=O)N/N=C/c2ccccn2)c2ccccc2n1 | inconclusive [inhibitor, single point] | –
CCC(=O)c1ccc(OCC(O)CN2CC(C)OC(C)C2)cc1 (centres undefined) | – | inactive: -7.45%
